In PubChem BioAssay AID1963872 (Molecular Pharmacology Branch, DTP, NCI, 2024):
A number of entries come with more than one value. Only these are listed. An entry can have further records. The values listed for one entry are repeats across runs, samples, wells, individuals or studies. Marks such as (2×) say how often a value occurs here.

Test system: KRAS patient-derived spheroids with HUVEC/MSC, viability
Experiment: Anticancer human tumor 519858-162-T-J1-PDC patient-derived colon adenocarcinoma cell line growth inhibition [KRAS2]
Details: for viability, T/C: stronger effect = lower value; for IC50: compound alone
Source text: Multicellular complex tumor spheroid response to RAS pathway inhibitors in combination with a targeted agents in patient-derived cell lines with oncogenic KRAS variants from multiple cancer types
A high-throughput screen of multi-cell type tumor spheroids was designed to identify active combinations of targeted small molecules and KRAS pathway inhibitors. Complex spheroids include a stromal component modeled by human endothelial cells (HUVEC) and fibroblasts modeled by human mesenchymal stem cells (MSCs). The concentration ranges selected for each drug and investigational agent were based upon clinically achievable concentrations if the clinical Cmax of the agent was known.
Compounds. The drugs and investigational agents: BI-3406 (NSC825286), BAY-293 (NSC824723), batoprotafib (TNO155; NSC825523), sotorasib (AMG 510; NSC818433), MRTX1257 (NSC819558), elimusertib (BAY 1895344; NSC800525), molibresib (GSK525762; NSC774829), temuterkib (LY3214996; NSC803410), venetoclax (NSC766270), alisertib (NSC759677), olaparib (NSC753686), talazoparib (NSC767125), erdafitinib (NSC781556), ipatasertib (NSC767898), cabozantinib (NSC761068), nintedanib (NSC756659), abemaciclib (NSC768073), docetaxel (NSC628503), trametinib (NSC758246), and sapanisertib (NSC764658) were obtained from the National Cancer Institute (NCI) Developmental Therapeutics Program Chemical Repository. The FDA-approved anticancer drug set is available from the Developmental Therapeutics Program. […] The stock solutions were prepared in dimethyl sulfoxide (DMSO, Sigma-Aldrich, St. Louis, MO, cat. D2650) at 800-fold the tested concentration and stored at -70 degrees C prior to their use. All drugs and investigational agents were tested over a range starting from a high concentration at or near the clinical Cmax and decreasing in half-log increments. If the clinical Cmax for an agent had not been determined, the highest concentration tested was 10 microM.
Cell Culture. All cells were maintained in an incubator at 37 degrees C and 5% CO2 with 95% humidity. The PDC lines were cultured according to standard operating procedures established by the NCI PDMR (https://pdmr.cancer.gov/sops/default.htm). Briefly, all PDCs were thawed and cultured in Matrigel-coated flasks prepared with a working solution of 1X Ham's F-12 nutrient mix, without supplementation (Invitrogen, Waltham, MA, cat. 11765054), 100 U/mL penicillin-streptomycin (Invitrogen, cat. 15140122), and 2.5% Matrigel (Corning Inc., Corning, NY, cat. 354248) for the first three passages. All PDCs were cultured in complete DMEM/F-12 media containing advanced DMEM/F-12 (Invitrogen, cat. 12634028), 4.9% defined fetal bovine serum, heat inactivated (HyClone Laboratories Inc., Logan, UT, cat. SH30070.03HI), 389 ng/mL hydrocortisone (Sigma-Aldrich, cat. H4001), 9.7 ng/mL human EGF recombinant protein (Invitrogen, cat. PHG0313), 23.4 microg/mL adenine (Sigma-Aldrich, cat. A2786), 97.3 U/mL penicillin-streptomycin (Invitrogen, cat. 15140122), 1.9 mM L-glutamine (Invitrogen, cat. 25030081), and 9.7 microM Y-27632 dihydrochloride (Tocris Bioscience, Bristol, United Kingdom, cat. 1254). The PDCs were cultured in complete DMEM/F12 media without 9.7 microM Y-27632 dihydrochloride for at least two passages prior to the screen. The established cell line HOP-62 was cultured in RPMI 1640 medium, HEPES (Invitrogen, cat. 22400105) with 10% defined fetal bovine serum (HyClone Laboratories Inc., cat. SH30070.03) and 2 mM L-glutamine (Invitrogen, cat. 25030081). The pooled donor HUVEC were cultured in endothelial cell growth medium 2 (PromoCell, Heidelberg, Germany, cat. C-22011) and the hMSC were cultured in mesenchymal stem cell growth medium 2 (PromoCell, cat. C-28009). For all experiments, HUVEC and hMSC were used at passages </=5, while the malignant cell lines were used at passages </=15. […]
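Also: compound exposure lasted seven days before readout.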
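For viability, T/C in this document: 100% = DMSO vehicle control viability.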

Structure (SMILES) | viability, T/C (compound alone 0.1 µM) | viability, T/C (compound alone 0.316 µM) | viability, T/C (compound alone 1 µM) | viability, T/C (compound alone 3.16 µM) | viability, T/C (compound alone 10 µM) | IC50 (run of 07/26/2021) | viability, T/C (compound alone 0.0316 µM) | IC50 | viability, T/C (compound alone 0.000316 µM) | viability, T/C (compound alone 0.001 µM) | viability, T/C (compound alone 0.00316 µM) | IC50 (run of 07/12/2021)
CC1OCC2(CCN(c3cnc(Sc4ccnc(N)c4Cl)c(N)n3)CC2)C1N (stereo not drawn) | 76.7, 105 (2×), 89.4, 73.2, 82.2, 85.5, 72.7, 97.4, 79.5, 78.4, 75.6, 84.2, 87.7, 61, 80.1, 83.3, 85.6% (2×) | 56.8, 52.9, 78.4, 67, 97.5, 69.1, 61, 105, 88.6, 80.1, 58.5, 59.2, 76.3, 77.4, 66.4, 65, 82.4, 79.5, 59.5% | 68.8, 96.3, 96.9, 68.2, 65.4 (2×), 78.7, 89.3, 65.5, 75, 70.4, 63.5 (2×), 71.2, 84, 79.3, 70.1, 98.3, 60.5% | 58, 58.4, 56.2 (2×), 73.4, 61.9, 53.7, 56.9, 63.8, 80.7, 47.4, 49.7, 64.6, 66.3, 57.3, 39.2, 47.9, 58.3, 72.8, 51.9% | 65.1, 82.3, 69, 63.2, 61.8, 63.7, 50, 56.8, 58.5, 64.4, 80.5, 70.2, 73.7, 57.9, 47.5, 75.6, 35.9, 77.2, 44.9, 62% | 2.19 µM, > 10 µM, 4.74 µM, 3.51 µM, 3.13 µM |  |  |  |  |  | 
CC1(C)CCC(CN2CCN(c3ccc(C(=O)NS(=O)(=O)c4ccc(NCC5CCOCC5)c([N+](=O)[O-])c4)c(Oc4cnc5[nH]ccc5c4)c3)CC2)=C(c2ccc(Cl)cc2)C1 | 69.2, 81.9, 85.9, 95.7, 87.4% | 104, 78.3, 93.5, 124, 81.1% | 106, 87.8, 93.1, 118, 71.3% |  | 46.7, 79, 81, 89, 75.4% |  | 117, 96.7, 81.5, 80.9, 83.2% |  |  |  |  | 
CC(=O)Nc1cccc(-n2c(=O)n(C3CC3)c(=O)c3c(Nc4ccc(I)cc4F)n(C)c(=O)c(C)c32)c1 |  |  |  |  |  |  |  | 6.97, 2.13, 2.49, 2.4, 4.16 nM | 91.4, 99.5, 76.6, 65.7, 64% | 89.4, 62.2, 64, 52.2, 56.8% | 76.8, 42.7, 50.6, 60.8, 65.6% | 
COc1cc2nc(C)nc(NC(C)c3cc(N)cc(C(F)(F)F)c3)c2cc1OC1CCOC1 (stereo not drawn) | 91.5, 67.3, 111, 79.7, 85.7, 80.2, 79.5, 81.9, 82.4, 84.2, 95.3, 77.1, 117, 76, 86.6, 88.8, 97.6% | 96, 70.9, 95.4, 51.3, 71.6, 81, 81.2, 89.1, 88.7, 61.8, 63.9, 59.6, 90.9, 63.2, 79.9, 77.7, 67.5% | 77.9, 76.6, 79.1, 42.1, 54.4, 71.1, 73.2, 82.2, 58.5, 71.2, 92.1, 71.7, 70.6, 65.2, 89.1, 65.6, 62.5% | 94.2, 68.2, 61.2, 51.1, 49, 70.8, 63, 82.8, 71.8, 66.3, 79.1, 49.8, 66.9, 53.2, 62.2, 56.6, 85.5% | 82.5, 79, 72.6, 48.9, 61.5, 73.9, 70, 84.4, 97, 69.4, 46.8, 51, 68.5, 30.5, 68.6, 63.4, 67.7% |  |  |  |  |  |  | > 10 µM and 393 nM
COc1cc2nccc(Oc3ccc(NC(=O)C4(C(=O)Nc5ccc(F)cc5)CC4)cc3)c2cc1OC | 98.7, 123, 117, 94.8, 94.4% |  | 104, 92.4, 98.7, 68.1, 85.9% | 83, 125, 120, 108, 122% | 107, 117, 144, 76.7, 152% |  | 111, 99.8, 93.2, 71.7, 99.4% |  |  |  |  | 
CCN1CCN(Cc2ccc(Nc3ncc(F)c(-c4cc(F)c5nc(C)n(C(C)C)c5c4)n3)nc2)CC1 |  |  |  |  |  |  | 81.9, 90.5, 65.3, 69.2, 85.5% |  |  |  |  | 
CNCc1ccccc1-c1csc(C(C)Nc2nc(C)nc3cc(OC)c(OC)cc23)c1 (stereo not drawn) | 62.5, 64.2, 89.8, 87, 69.2, 90.8, 85.4, 88.2, 87.4, 69.8, 89.5, 73.9, 85.7, 66.2, 81.5, 85, 90.3% | 75.8, 86.6, 73.6, 78.6, 85.3, 86.7, 98.6, 82.5, 79.9, 80, 77.4, 67.7, 72.7, 64.2, 98.8, 85.9, 76.5% | 74.2, 71.9, 105, 87.4, 88.6, 83.6, 82.3, 72.2, 63.4, 89.5, 71.3, 72, 64.8, 53.4, 70.8, 77.8, 65.4% | 78.7, 76, 69, 73.6, 59.7, 67.2, 35.6, 63.5, 45.2, 70, 65.7, 49.9, 38.8, 50.8, 51.6, 42, 55% | 79.5, 0.37, 0.72, 0.66, 0.41, 0.4 (2×), 0.35, 0.61, 0.38, 0.59, 2.48, 0.99, 18.9, 0.19, 0.68, 12.9% |  |  |  |  |  |  | > 10 µM, 4.64 µM, 4.36 µM, 4.59 µM, 3.82 µM, 4.23 µM
COC(=O)c1ccc2c(C(=Nc3ccc(N(C)C(=O)CN4CCN(C)CC4)cc3)c3ccccc3)c(O)[nH]c2c1 | 71.5, 94.4, 91.2, 101, 104% | 89.3, 83.9, 98.9, 62, 78.4% | 79.8, 89.4, 111, 78.6, 105% | 73.1, 113, 99.3, 85, 97.6% | 69.6, 84.2, 77, 60.4, 98.4% |  |  |  |  |  |  | 
CCNC(=O)CC1N=C(c2ccc(Cl)cc2)c2cc(OC)ccc2-n2c(C)nnc21 (stereo not drawn) | 99.8, 78.8, 70.6, 85.2, 82.6% | 69.3, 75.1, 104, 66.2, 84.4% |  | 48, 48.5, 54.7, 21.8, 48.1% | 35.3, 28.3, 40.8, 6.83, 25.1% |  | 93.7, 105, 100, 71.2, 84.3% |  |  |  |  | 
